Test results from the RNAGym collection of RNA variant scans (doi:10.1073/pnas.2313332121).
Variants at the floor of the assay are shown more often than the library holds them.

B1: TPR 5TU (parent)
chain: GGAUCUUCUCGAUCUAACAAAAAAGACAAAUCUGCCACAAAGCUUGAGAGCAUCUUCGGAUGCAGAGGCGGCAGCCUUCGGUGGCGCGAUAGCGCCAACGUUCUCAACUAUGACACGCAAAACGCGUGCUCCGUUGAAUGGAGUUUAUCAUG

Variants of: B1
Experiment: polymerase ribozyme fitness, log enrichment relative to wild type (log ratio); higher = more active; in vitro selection for triplet polymerase activity
Outline: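 After PCR construction and transcription, each subunit's mutant library from a heterodimeric triplet polymerase ribozyme was annealed with a biotinylated primer, the partner subunit and triplets. Incubation was frozen, at −7 °C, and extended constructs were gel-excised, bound to streptavidin beads and amplified by RT-PCR, in one selection round done in triplicate. Fitness is the logarithm of a genotype's enrichment divided by that of the wild type, from inverse-variance-weighted replicate averages of Illumina-sequenced inputs and outputs. The base of the logarithm is 2, and genotypes needed ≥10 input reads and ≥1 read per output.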

| Variant | polymerase ribozyme fitness (log ratio) |
| --- | --- |
| GGAUCUUCUCGAUCUAACAAAAAAGACAAAUCUGCCAAAAAGCUUGAGAGCAUCUUCGGAUGCAGAGGCGGCAGCCAUUGGUGGCGAGAUAGCGCCAACGUUCUCAACUAUGACACGCAAAACGGGUGCUCCGUUGAAUGGAGUUUAUCAUG [C38A U77A C79U C87A C125G] | ≤ -4.2 |
| GGAUCUUCUCGAUCUAACAAAAAAGACAAAUCUGCCAGAAAGCUUGAGAGCAUCUUCGGAUGCAGGGGCGGCAGCCGUCGGUUGCGCGAUAGCGCCAACGUUCUCAUCUAUGACACGCAAAACGCGUCCUCCGUUGUAUGGAGUUUAUCAUG [C38G A66G U77G G83U A107U G128C A137U] | ≤ -4.2 |
| GGAUCUUCUCGAUCUAACAAAAAAGACAAAUCUGCCAGAAAGCUUGCGAGCAUCUUCGGAUGCAGAGGCGGCAGCCUUCGGUGGCGCAAUAGCGCCAACGUUCUUAACUAUGACACGCAAAUCGCGUGCUCCGUUAAAUGGAGUUUAUCAUG [C38G A47C G88A C105U A122U G136A] | ≤ -4.2 |
| GGAUCUUCUCGAUCUAACAAAAAAGACAAAUCUGCCAGAAAGCUUGAGAGCAUCUUCGGAUGCAGAGGCGGCUGCCUUCGGUGGCGGGAUAGCGCCAACGUUCUCAACUAUGACACGCAAAACUCGUGCUCCGUUGAAUGGAGUUUAACAUG [C38G A73U C87G G124U U148A] | ≤ -4.2 |
| GGAUCUUCUCGAUCUAACAAAAAAGACAAAUCUGCCAAAAAGCUUGAGAGCAUCUACGGAUGCAGAGGCGGCAGCCUUCGGUGGCGCGAUAGCGCCAACGUUCUCAACUAUGACACGCAAAACGCGUUCUCCGUUGAAUGGAGUUUAUCAUG [C38A U56A G128U] | -3.69 |
| GGAUCUUCUCGAUCUAACAAAAAAGACAAAUCUGCCAGAAAGCUUGAGAGCAUCUUCGGAUGCAGAGGCGGCAGCCUUCGGUGGCGCGAUGGCGCCAACGAUCUCAACUAUGACACGCAAAACGCGUGCUCCGUUGAAUGGAGUUUAUCAUG [C38G A91G U101A] | ≤ -4.2 |
| GGAUCUUCUCGAUCUAACAAAAAAGACAAAUCUGCCAAAAAGCUUGAGAGCAUCUUCGGAUGCAGAGGCGGCAGCCUUCGGAGUCGCGAUAGCGCCAACGUUCUCAACUAUGACACGCACAACGCGUGCUCCGUUGAAUGGAGUUUAUCAUG [C38A U82A G84U A120C] | -1.37 |
| GGAUCUUCUCGAUCUAACAAAAAAGACAAAUCUGCCAGAAAGCUUGAGCGCAUCUUCGGAUGCAGAUGCGGCAGCCUUGGGUGGCGCGAUAGCGCCAACGUUCUCAACUAUGACACGCAAAGCGCGUGGUCCGUUGAAUAAAGUUUAUCAUG [C38G A49C G67U C79G A122G C129G G140A G141A] | ≤ -4.2 |
| GGAUCUUCUCGAUCUAACAAAAAAGACAAAUCUGCCAGAAAGCUUGAGAGCAUCUUCGGCUGCAGAGGCGGCAGCCUUCGGGGGCGUGAUAGCCCCAAGGUUCUCAACUAUGACACGCAAAACGCGUGCUCCGUUGUAUGCAGUUUAUCAUG [C38G A60C U82G C87U G94C C99G A137U G141C] | ≤ -4.2 |
| GGAUCUUCUCGAUCUAACAAAAAAGACAAAUCUGCCAAAAAGCUUGAGAGCAUCUUCGGAUGCAGAGGCGGCAGCCUUCGGUGGCGCGAUAGCGCCAACGUUCUCAACAAUGAUAGGCAAAACGCGUGCUCCGUUGAAUGGAGUUUAUCAUG [C38A U109A C114U C116G] | ≤ -4.2 |
| GGAUCUUCUCGAUCUAACAAAAAAGACAAAUCUGCCAAAAAGCUUGAGAGCAUCUACGGAUGCAGAGGCGGCAGCCUUCGGUGGCGGGAUAGCGCCAACGUUCUCAACUAUGACACGCAAAACGCGUGCUCCGUUGAAUGGAGUUUAUCAUG [C38A U56A C87G] | ≤ -4.2 |
| GGAUCUUCUCGAUCUAACAAAAAAGACAAAUCUGCCAGAAAGCUUGAGCGCAUCUGCGGAUGCAGAGGCGGCAGCCUUCGGUGGCGCGAUAGCGCCAAUGUUCUCAACUAUGACACGCAAAACGCGUGCUUCGUUGAAUGGAGUUUAUCAUG [C38G A49C U56G C99U C131U] | ≤ -4.2 |
| GGAUCUUCUCGAUCUAACAAAAAAGACAAAUCUGCCAAAAAGCUUGAGAGCAUCUUCGGAUGCAGAGGCGGCAGCCAUCGGUGGCGCGAUAGCGCCAACGUUCUCAACUAUGACACGCAAAAAGCGUGCUCCGUUGAAUGGAGUUUAUCAUG [C38A U77A C123A] | ≤ -4.2 |
| GGAUCUUCUCGAUCUAACAAAAAAGACAAAUCUGCCAAAAAGCUUGAGAGCAUCUUCGGAUGCAGAGGCGGCAGCCUUCGGUGGCUCGAUAGCGCCAACGUUCUCAGCUAUGACAUGCAAAACGCGUGCUCCGUUGAAGGGAGUAUAUCAUG [C38A G86U A107G C116U U139G U145A] | ≤ -4.2 |
| GGAUCUUCUCGAUCUAACAAAAAAGACAAAUCUGCCAAAAAGCUUGAGAGCAUCAUCGGAUGCAGAGGCGGCAGCCUUCGGUGGCGCGAUAGGGCCAACGUUCUCAACUAUGACACGCAAAACGCGUGCUCCGUUGAAUGGAGUUUAUUAUG [C38A U55A C93G C149U] | ≤ -4.2 |
| GGAUCUUCUCGAUCUAACAAAAAAGACAAAUCUGCCAAAAAGCUUGAGAGCAUCUACGGAUGCAGAGGUGGCAGCCUUCGGUGGCGCGAUAUCGCCCAGGUUCUCAACUAUGACACGCAAAACGCGUGCUCCGUUGAAUGGAGUUUAUCAUG [C38A U56A C69U G92U A97C C99G] | ≤ -4.2 |
| GGAUCUUCUCGAUCUAACAAAAAAGACAAAUCUGCCAAAAAGCUUGAGAGCAUCUUCGGAUGCAGAGGCGGCAGCCUUCGGUGGCGCGAUAGCACCAACGUUCUCAACUAUGACACGCAAAACGCGUGCUCCGUUGAAUGGAGUUUAUCAUG [C38A G94A] | -0.134 |
| GGAUCUUCUCGAUCUAACAAAAAAGACAAAUCUGCCAAAAAGCUUGAGAGCAUCGUCGGAUGCAGAGGCGCCAGCCUUCGGUGGCGCGAUAGCGGCAACGUUCUCAACUAUGACACGUAAAACGCGUGCUUCGUUGAAUGGAGUUUAUCAUG [C38A U55G G71C C95G C118U C131U] | ≤ -4.2 |
| GGAUCUUCUCGAUCUAACAAAAAAGACAAAUCUGCCAGACAGCUUGAGAGCAUCUUCGGCUGCAGAGGCGGCAGCCUUCGGUGGCUCGAUAGCGCCAACUUUCUCAACUAAGACACGCAAAACGCGUGCUCCGUUUAAUGGAGUUUAUCAUG [C38G A40C A60C G86U G100U U111A G136U] | ≤ -4.2 |
